Measurements: the supplement of paper PMC7125110
± gives the standard error. Variants at the floor of the assay are shown more often than the library holds them.

B1: glmS ribozyme (parent)
chain: AUAAAAGCGCCAGAACUACAGAAAUGUAGUUGACGAGGAGGAGGUUUAUCGAAUUUUCGGCGGAUGCCUCCAAA

Assays:
Settings in all cases: with glucosamine-6-phosphate
[1] = variants of: B1; test: self-cleavage kobs at 40 uM GlcN6P; higher = faster cleavage; RNA array
Outline: (§1)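 Barcoded ribozyme variants on sequenced MiSeq chips were transcribed in situ by E. coli RNA polymerase and followed at 37 °C through a hybridised Cy3 probe. Glucosamine-6-phosphate at 40 μM to 10 mM in HEPES/KCl/Mg(OAc)2 buffer was flowed in, and tiles were imaged over ~14 h. Signals were normalised to baseline and to non-cleaving reference variants, and per-tile medians were fit to one- or two-exponential decays to give kobs. Weighted Michaelis–Menten fits across concentrations gave kcat and KM.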

[2] = variants of: B1; test: self-cleavage kobs at 640 uM GlcN6P; higher = faster cleavage; RNA array
Outline: as §1

[3] = variants of: B1; test: self-cleavage kobs at 160 uM GlcN6P; higher = faster cleavage; RNA array
Outline: as §1

[4] = variants of: B1; test: self-cleavage kobs at 10000 uM GlcN6P; higher = faster cleavage; RNA array
Outline: as §1

[5] = variants of: B1; test: self-cleavage kobs at 2500 uM GlcN6P; higher = faster cleavage; RNA array
Outline: as §1

Variant	self-cleavage kobs at 40 uM GlcN6P [1] [s⁻¹]	self-cleavage kobs at 640 uM GlcN6P [2] [s⁻¹]	self-cleavage kobs at 160 uM GlcN6P [3] [s⁻¹]	self-cleavage kobs at 10000 uM GlcN6P [4] [s⁻¹]	self-cleavage kobs at 2500 uM GlcN6P [5] [s⁻¹]
G32U G44C	< 1e-05	< 1e-05	< 1e-05	< 1e-05	–
G29U G43A G63A	< 1e-05	–	–	–	–
G29U A52G G62C A64G	< 1e-05	–	–	–	–
C34U U65G	< 1e-05	< 1e-05	–	< 1e-05	< 1e-05
U31G A33U	< 1e-05	–	–	7.23e-05 ± 1.2e-05	3.73e-05 ± 1.2e-05
U30A U49A G62U	< 1e-05	–	–	–	–
G29C G62C	< 1e-05	< 1e-05	< 1e-05	–	< 1e-05
G32U A53G A64U	< 1e-05	–	–	–	–
G32C C34U	< 1e-05	< 1e-05	< 1e-05	< 1e-05	< 1e-05
U31G G59A	< 1e-05	–	–	–	–
G35A C67U	< 1e-05	< 1e-05	< 1e-05	–	< 1e-05
U31A A36G C67G	< 1e-05	–	–	< 1e-05	–
G32U G35A	< 1e-05	< 1e-05	–	< 1e-05	–
C34A G37C G60U	< 1e-05	–	–	< 1e-05	–
G32A G37A	< 1e-05	–	–	–	–
G29U G40A U56A A64C C71U	< 1e-05	–	–	–	–
G32U U45C	< 1e-05	–	< 1e-05	–	–
U31G U49G	< 1e-05	4.38e-05 ± 1.9e-05	–	0.000157 ± 1.4e-05	0.000102 ± 1.4e-05
C34G U65A	< 1e-05	–	< 1e-05	< 1e-05	< 1e-05
G29C G51C	< 1e-05	–	< 1e-05	< 1e-05	–
C34A A48G U54C G66U C68G	< 1e-05	–	–	< 1e-05	–
A33U G37U G40A G66U C68U	< 1e-05	–	–	–	–
G32U G43U G44U G60A	< 1e-05	< 1e-05	–	–	< 1e-05
G29U G63A	< 1e-05	< 1e-05	–	< 1e-05	< 1e-05
U31C A53G	0.000158 ± 1.8e-05	0.00167 ± 0.00042	0.000305 ± 5.6e-05	0.00495 ± 0.00059	0.00309 ± 0.00042
U31C G38A A42C G60C	< 1e-05	–	–	< 1e-05	–
G32U G59U	< 1e-05	< 1e-05	–	–	–

Variant	self-cleavage kobs at 40 uM GlcN6P [1] [s⁻¹]	self-cleavage kobs at 640 uM GlcN6P [2] [s⁻¹]	self-cleavage kobs at 160 uM GlcN6P [3] [s⁻¹]	self-cleavage kobs at 10000 uM GlcN6P [4] [s⁻¹]	self-cleavage kobs at 2500 uM GlcN6P [5] [s⁻¹]
G32U G40C	< 1e-05	–	–	–	–
U30G U54G U55C A64C	< 1e-05	< 1e-05	–	–	–
A33G U49A	< 1e-05	–	–	< 1e-05	–
U30A A39U G51A A64G	< 1e-05	–	–	< 1e-05	–
G32C G35A A42G U69A	< 1e-05	–	–	< 1e-05	–
U30G G60A C67U	< 1e-05	–	–	–	–
G29U U30G	9.59e-05 ± 1.7e-05	0.00131 ± 0.00023	0.000286 ± 5.6e-05	0.00493 ± 0.001	0.00182 ± 0.00035
G32C G38C G44A C70U	< 1e-05	–	–	–	–
G29C G37U G63U	< 1e-05	–	–	–	–
G29U G44U U49G	< 1e-05	–	–	–	< 1e-05
G32C G35A A48U A52U U54C C67U	< 1e-05	< 1e-05	< 1e-05	–	–
U30A A42C	< 1e-05	< 1e-05	< 1e-05	< 1e-05	–
A33U G60A	< 1e-05	< 1e-05	< 1e-05	–	–
A33C U49C C58A	< 1e-05	–	–	< 1e-05	–
G29U U55A G59U	< 1e-05	–	–	–	–
U30A C71A	5.08e-05 ± 1.3e-05	0.000632 ± 0.0002	–	–	–
A33U A39G U65A	< 1e-05	–	–	–	–
C34G U45G C70A	< 1e-05	–	–	–	–
G29U U54A	0.000181 ± 1.9e-05	0.00184 ± 0.0003	0.000284 ± 7.7e-05	0.0068 ± 0.00083	0.00361 ± 0.0006
A33C C70U	< 1e-05	–	–	–	–
G32U C50G C68G	0.00012 ± 2.5e-05	–	–	9.96e-05 ± 1.7e-05	–
U31C G41C C58A C70A	< 1e-05	–	–	< 1e-05	–
A33U G37U C50G U69A	8.34e-05 ± 2.3e-05	–	–	0.000105 ± 2.5e-05	–
U30C A33G G66U C71G	< 1e-05	–	–	< 1e-05	–
G32C A33U C61U	< 1e-05	–	–	< 1e-05	–
U30A U55A	0.000212 ± 3.2e-05	–	–	–	–
